Measured values reported in PubChem BioAssay AID504332 (National Center for Advancing Translational Sciences (NCATS), 2011).
Hit rate of the full screen: of about 350,000 compounds, about 31,000 (8.9%) were called active. The inconclusive results got no clear call from the source; some entries with a clear call stand among them for comparison. The call rests on the fitted dose curve; in most records, active means well fitted inhibition curve with a large enough effect; inconclusive means small, poorly fitted or top-dose-only effect; inactive means no such curve, though single readings can be large or run the other way. Potencies beside an inconclusive call are fits to weak or partial responses and may not hold up.
Further: nearly all actives have a fitted effect of over 75% in size.
On the % scale 0 is the no-effect control and ±100 the full control effect; potency means the concentration at half of the fitted maximal effect; tags describe the fitted curve by direction and shape.

Each compound was assayed against Histone-lysine N-methyltransferase EHMT2 (Homo sapiens) (UniProt Q96KQ7) (assay: qHTS Assay for Inhibitors of Histone Lysine Methyltransferase G9a). Settings: G9a H3K9 monomethylation, AlphaScreen, 2 h; activity, negative = inhibition: at 59 µM (top of the series) unless noted.
Chain of UniProt Q96KQ7 (Q96KQ7 whole entry, looked up): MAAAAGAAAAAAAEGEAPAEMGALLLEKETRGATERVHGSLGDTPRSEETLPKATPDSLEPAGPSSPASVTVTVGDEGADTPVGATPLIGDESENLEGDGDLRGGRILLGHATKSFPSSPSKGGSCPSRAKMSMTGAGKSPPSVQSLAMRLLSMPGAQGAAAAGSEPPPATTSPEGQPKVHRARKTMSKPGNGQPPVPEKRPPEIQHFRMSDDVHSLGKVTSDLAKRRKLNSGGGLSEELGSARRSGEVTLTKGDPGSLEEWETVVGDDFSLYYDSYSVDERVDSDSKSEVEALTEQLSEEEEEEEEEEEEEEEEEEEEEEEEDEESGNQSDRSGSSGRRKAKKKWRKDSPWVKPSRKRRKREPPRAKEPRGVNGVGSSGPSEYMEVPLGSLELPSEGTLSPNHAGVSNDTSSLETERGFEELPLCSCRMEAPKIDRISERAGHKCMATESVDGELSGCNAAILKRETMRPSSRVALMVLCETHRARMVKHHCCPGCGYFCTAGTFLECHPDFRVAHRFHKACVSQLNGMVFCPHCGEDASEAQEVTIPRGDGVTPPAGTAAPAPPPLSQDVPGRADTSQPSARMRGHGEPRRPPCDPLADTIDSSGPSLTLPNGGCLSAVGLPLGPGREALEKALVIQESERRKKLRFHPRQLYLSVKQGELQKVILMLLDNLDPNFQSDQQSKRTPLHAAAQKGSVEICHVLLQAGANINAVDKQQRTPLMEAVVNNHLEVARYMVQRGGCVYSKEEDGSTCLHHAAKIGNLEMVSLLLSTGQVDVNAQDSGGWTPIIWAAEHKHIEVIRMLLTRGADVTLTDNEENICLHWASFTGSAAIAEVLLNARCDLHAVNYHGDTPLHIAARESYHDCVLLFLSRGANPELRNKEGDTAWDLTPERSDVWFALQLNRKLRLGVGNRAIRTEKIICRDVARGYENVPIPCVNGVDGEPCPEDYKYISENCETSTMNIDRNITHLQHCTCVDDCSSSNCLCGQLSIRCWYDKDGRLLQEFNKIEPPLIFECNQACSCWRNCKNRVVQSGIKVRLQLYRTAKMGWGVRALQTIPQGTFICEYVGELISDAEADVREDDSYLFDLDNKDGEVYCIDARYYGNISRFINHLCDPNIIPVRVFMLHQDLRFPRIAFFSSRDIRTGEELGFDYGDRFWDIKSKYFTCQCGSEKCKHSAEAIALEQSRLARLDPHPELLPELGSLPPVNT
In short: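 AlphaScreen read-out: biotin-H3K9 peptide (500 nM) methylation by 20 nM enzyme with 20 uM SAM, 2 h at room temperature after 15 min compound preincubation; anti-monomethyl H3K9 antibody plus donor/acceptor beads, 10 min dark.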
In the case of `Cc1oc(-c2ccc(Cl)cc2)cc1-c1nn2c(-c3ccoc3C)nnc2s1`, the Potency was inconclusive: 3.55 µM [inhibitor, single point].
`COC1=C(OC)C(=O)C(C/C=C(\C)CC/C=C(\C)CC/C=C(\C)CC/C=C(/C)CC/C=C(\C)CC/C=C(\C)CC/C=C(\C)CC/C=C(\C)CC/C=C(\C)CCC=C(C)C)=C(C)C1=O` was tested, and the activity, negative = inhibition was inconclusive: -72.9% [inhibitor] [at 2.33 µM].
For `O=C(CSc1oc(-c2cccs2)nc1S(=O)(=O)c1ccc(F)cc1)NCC1CCCO1` (stereo unspecified), the Potency was active: 44.7 µM.
With `CCOc1ccccc1N=Cc1c(O)c2ccccc2oc1=O` the activity, negative = inhibition was inactive: -4.5% [at 0.501 µM].
In the case of `CC(Sc1nnc(-c2cccnc2)o1)C(=O)NC1CCCCC1` (stereo unspecified), the activity, negative = inhibition was inactive: -1.28% [at 12.7 µM].
For `CCC1(c2ccccc2)NC(=O)N(CC(=O)Nc2ccccc2C(=O)NC2CCCC2)C1=O` (stereo unspecified), the activity, negative = inhibition was inactive: 20.5% [at 0.501 µM].
In the case of `Cc1ccc(C)c(N(C)S(=O)(=O)c2ccc3[nH]cc(C(=O)NC4CCCC4)c(=O)c3c2)c1`, the “activity, negative = inhibition” value was inactive: 2.24%.
For `CN(C1=C(NC(=O)c2ccc(Cl)cc2)C(=O)c2ccccc2C1=O)c1ccccc1`, the Potency was active: 8.91 µM.
For `O=C(COC(=O)c1cccc2c1C(=O)c1ccccc1C2=O)NC1CCCCC1`, the Potency was active: 17.8 µM.
In the case of `CN(CC(=O)Nc1cccc(F)c1)C(=O)c1cc([N+](=O)[O-])ccc1N1CCCCC1`, the Potency was inconclusive: 39.8 µM [inhibitor, partial curve, poor fit].
`CCOC(=O)C1=C(c2ccccc2)O/C(=C(/C#N)C(F)(F)F)S1` was tested, and the Potency was inconclusive: 28.2 µM [inhibitor, single point].
For `CCOC(=O)c1cnc2nc(NCc3ccc(OCC)cc3)[nH]n2c1=O`, the Potency was inconclusive: 31.6 µM [inhibitor, partial curve, poor fit].
`COc1ccc(N(CC(=O)Nc2c(C)cccc2C)S(=O)(=O)c2ccccc2[N+](=O)[O-])c(OC)c1` was tested, and the Potency was inconclusive: 31.6 µM [inhibitor, partial curve, poor fit].
`CN(C)/C=C/C(=O)c1ccc(-n2cccc2)cc1` was tested, and the Potency was inconclusive: 79.4 µM [inhibitor, single point].
With `COc1ccc(-c2csc(N3CCOCC3)n2)cc1OC` the activity, negative = inhibition was inactive: 10.3% [at 2.33 µM].
`Cc1cc(-c2nc3ncccc3o2)ccc1NC(=O)COc1cc(C)c(Cl)c(C)c1` was tested, and the “activity, negative = inhibition” value was inactive: -32.9%.
For `COc1cccc(-c2nc(N3CC(C)CC(C)C3)c3ccccc3n2)c1O` (stereo unspecified), the Potency was active: 35.5 µM.
`CN1CCN(C2=Cc3ccc(Cl)cc3Sc3ccc(F)cc32)CC1` was tested, and the Potency was inconclusive: 28.2 µM [inhibitor, single point].
With `COc1cccc(NC(=O)CCC2CCN(Cc3nccs3)CC2)c1` the Potency was inconclusive: 89.1 µM [inhibitor, single point].
For `CN(C(=O)CSc1nnc(-c2cccc(F)c2)n1N)C1CCS(=O)(=O)C1` (stereo unspecified), the “activity, negative = inhibition” value was inactive: -23% [at 102 µM].
In the case of `Cn1c(N2CCN(C(c3ccccc3)c3ccccc3)CC2)nc2c1c(=O)[nH]c(=O)n2C`, the “activity, negative = inhibition” value was inactive: -0.552% [at 102 µM].
With `O=S(=O)(Cc1ccc(Cl)cc1)Nc1ccc(Cl)cn1` the Potency was inconclusive: 89.1 µM [inhibitor, partial curve, poor fit].
`COc1ccc(CCNC(=O)c2cc3c(=O)n4cccc(C)c4nc3n(Cc3ccco3)c2=N)cc1OC` was tested, and the Potency was inconclusive: 89.1 µM [inhibitor, partial curve, poor fit].
In the case of `CCN(Cc1ccccc1)S(=O)(=O)c1ccc2[nH]c3c(c2c1)CCCCC3`, the Potency was inconclusive: 14.1 µM [inhibitor, single point].
For `CN(CC(=O)Nc1ncn[nH]1)S(=O)(=O)c1ccc(Cl)cc1`, the Potency was active: 89.1 µM.
In the case of `COc1cccc(C(=O)Cn2c(N3CCCCC3)nc3c2c(=O)n(C)c(=O)n3C)c1`, the Potency was inconclusive: 39.8 µM [inhibitor, single point].
With `COc1ccc(/C=C2/N=C(SC3CCOC3=O)N(c3cccc(OC)c3)C2=O)cc1` (stereo unspecified) the “activity, negative = inhibition” value was inactive: -22.4% [at 102 µM].
`Cc1ccccc1S(=O)(=O)N1[C@@H](c2ccc(F)cc2)C(C(=O)O)=CC[C@H]1c1ccc(Cl)cc1` was tested, and the activity, negative = inhibition was inactive: 4.42% [at 2.33 µM].
With `Cn1nnnc1SCCNCc1ccccc1F` the Potency was inconclusive: 3.55 µM [inhibitor, single point].
`O=C(NCc1ccc(F)cc1)C(=O)NCC(c1cccs1)S(=O)(=O)c1cccs1` (stereo unspecified) was tested, and the “activity, negative = inhibition” value was inactive: 1.86%.
`CC(C)(C)c1ccc(OCCN2CCCC2)cc1` was tested, and the Potency was inconclusive: 0.631 µM [inhibitor, partial curve, poor fit].
`CC(/C=N/NC(=O)c1cnccn1)=C\c1ccco1` was tested, and the Potency was inconclusive: 50.1 µM [inhibitor, partial curve].
In the case of `CCOc1ccc(NC(=O)COc2ccc3c(c2)CCC3)cc1OC`, the Potency was inconclusive: 7.08 µM [inhibitor, single point].
In the case of `CCC(Sc1nc(N)cc(=O)[nH]1)C(=O)Nc1cc(C)on1` (stereo unspecified), the “activity, negative = inhibition” value was inactive: -7.12% [at 102 µM].
In the case of `COc1ccc2cc(C3c4cc(OC)c(OC)cc4CCN3C(=O)c3ccco3)c(=O)[nH]c2c1` (stereo unspecified), the Potency was inconclusive: 28.2 µM [inhibitor, single point].
In the case of `CC1=CC(C)C(/C=N/n2cnnc2)C(C)C1` (stereo unspecified), the Potency was inconclusive: 89.1 µM [inhibitor, partial curve, poor fit].
In the case of `Clc1cccc(CSc2ncn(-c3ccccc3)n2)c1`, the Potency was active: 6.31 µM.
With `CCOC(=O)c1ccc(N2C(=O)CC(N(C)Cc3ccccc3)C2=O)cc1` (stereo unspecified) the Potency was inconclusive: 79.4 µM [inhibitor, partial curve, poor fit].
With `O=C(CSc1nnc(-c2ccco2)o1)NC(=O)C1COc2ccccc2O1` (stereo unspecified) the Potency was inconclusive: 2 µM [inhibitor, full curve, poor fit].
`Cc1ccc(-n2ncc3c(N4CCCCCC4)ncnc32)cc1C` was tested, and the “activity, negative = inhibition” value was inactive: 7.82%.
With `O=C(NC1CC1)c1ccc2c(Cl)c3c(nc2c1)CCCC3` the Potency was inconclusive: 89.1 µM [inhibitor, partial curve, poor fit].
With `C/C(=N\NC(=O)c1cccc([N+](=O)[O-])c1)c1ccco1` the “activity, negative = inhibition” value was inactive: 14.5% [at 102 µM].
For `COc1ccc(-n2c(Cc3cccn3C)nnc2SCC(=O)Nc2cccc(OC)c2)cc1`, the Potency was active: 50.1 µM.
`CCN(CC)C(=O)c1sc(NC(=O)c2ccncc2)c(C(=O)OC)c1C` was tested, and the Potency was inconclusive: 28.2 µM [inhibitor, single point].
In the case of `O=[N+]([O-])c1ccc(Oc2cccc(F)c2)c2ccncc12`, the Potency was inconclusive: 28.2 µM [inhibitor, single point].
For `CCOC(=O)/C=C/C(=O)N1CCN(C(=O)/C=C/C(=O)OCC)CC1`, the Potency was active: 56.2 µM.
In the case of `C=C1N[C@]2(C(=O)COC(C)=O)[C@@H](C[C@H]3[C@@H]4CCC5=CC(=O)C=C[C@]5(C)[C@H]4[C@@H](O)C[C@@]32C)O1`, the activity, negative = inhibition was inactive: -1.75% [at 12.7 µM].
`CCc1nnc(NC(=O)C2CC(=O)N(Cc3ccco3)C2)s1` (stereo unspecified) was tested, and the Potency was inconclusive: 12.6 µM [inhibitor, partial curve, poor fit].
In the case of `CC(=O)OCC1=C(C(=O)O)N2C(=O)C(NC(=O)CC(C)c3ccccc3)C2SC1` (stereo unspecified), the Potency was inconclusive: 15.8 µM [inhibitor, single point].
In the case of `O=C(NNC(=S)Nc1ccc(Cl)cc1Cl)c1ccncc1`, the Potency was inconclusive: 31.6 µM [inhibitor, single point].
With `Cn1c(SCC(=O)N2CCN(Cc3ccccc3)CC2)nnc1-c1ccncc1` the Potency was active: 11.2 µM.
In the case of `COc1ccc(/C=C2/N=C3CCCCCN3C2=O)cc1`, the Potency was inconclusive: 89.1 µM [inhibitor, single point].
In the case of `CCOC(=O)CCc1c(C)c2ccc(OCc3nn[nH]n3)cc2oc1=O`, the Potency was inconclusive: 89.1 µM [inhibitor, single point].
For `CC(C)Oc1cccc(-c2cc(C(=O)N3CCN(S(C)(=O)=O)CC3)c3ccccc3n2)c1`, the Potency was inconclusive: 50.1 µM [inhibitor, partial curve].
In the case of `CC1CCN(C(=O)CSc2nncn2-c2ccccn2)CC1`, the Potency was active: 7.08 µM.
With `O=C(c1ccco1)N1CCN(C(=O)c2cc(-c3ccccn3)nc3ccc(Cl)cc23)CC1` the Potency was inconclusive: 3.16 µM [inhibitor, partial curve, poor fit].
With `Cc1nnc2ccc(-c3ccc(NS(=O)(=O)c4ccccc4[N+](=O)[O-])cc3)nn12` the Potency was inconclusive: 3.55 µM [inhibitor, partial curve, poor fit].
In the case of `COc1cccc(C2CC(c3ccccc3OC)n3ncnc3N2)c1` (stereo unspecified), the Potency was inconclusive: 25.1 µM [inhibitor, single point].
With `O=C(OCC(=O)N1CCCC1)c1cc(Cl)ccc1Cl` the “activity, negative = inhibition” value was inactive: 24.7% [at 102 µM].
In the case of `CSc1ncnc2c1cnn2-c1ccc(C)cc1C`, the Potency was inconclusive: 56.2 µM [inhibitor, partial curve, poor fit].
`N#CCCn1c(=O)c(-c2ccc(Cl)cc2)nc2cnc(Oc3ccccc3)nc21` was tested, and the activity, negative = inhibition was inactive: 2.45% [at 0.501 µM].
For `O=S(=O)(NCCc1nnc2ccc(SCc3c(F)cccc3Cl)nn12)c1ccccc1`, the “activity, negative = inhibition” value was inactive: -30.1%.
With `COC(=O)c1ccc(CN(Cc2ccc(OC)c(OC)c2)S(=O)(=O)c2cc(C(=O)Nc3cccc(C)c3)ccc2F)cc1` the “activity, negative = inhibition” value was inactive: -1.78%.
With `CC(=O)c1c(C)[nH]c(C(=O)CSc2nnc(-c3ccccc3)n2Cc2ccc3c(c2)OCO3)c1C` the Potency was inconclusive: 3.16 µM [inhibitor, single point].
In the case of `CN(CC(=O)Nc1ccc(F)cc1)C(=O)c1ccc(-c2ccc(Cl)cc2)o1`, the Potency was active: 79.4 µM.
For `COc1ccc(/C=N/NS(=O)(=O)c2ccccc2)cc1OS(=O)(=O)c1ccc(C)cc1`, the Potency was inconclusive: 3.16 µM [inhibitor, partial curve, poor fit].
